# For some assays here: What follows is the remainder of the data, with few or none of the hits. Results filed as inconclusive are left out. This is a selection; strong and weak results do not stand in their true shares. The source holds several records for some structures; these can differ, active in one and inactive in another. Calls of active or inactive are those of the source. How the source made its calls, unless noted: active means hit-call score of the fitted dose curve at least 0.9, where 1 is the maximum; inconclusive means response in the unintended direction; inactive means score below 0.9.
# What was measured:
# [1] = biological target: human Retinoic Acid Receptor gamma (RARg), RARG (gene 5916) (UniProt P13631); assay: ATG_RARg_TRANS: Attagene TRANS-FACTORIAL HepG2 Assay for human Retinoic Acid Receptor gamma (RARg) (AID 2283009)
# How it was run: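 Transient transfection of HepG2 with multi-reporter constructs, then 24 h chemical treatment. Total RNA isolated, reverse-transcribed, PCR-amplified, fluorescently labelled and resolved by capillary electrophoresis; activity scored as mRNA induction versus DMSO.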
# [2] = biological target: Retinoic acid receptor RXR-alpha (Homo sapiens) (UniProt P19793); assay: ATG_RXRa_TRANS: Attagene TRANS-FACTORIAL HepG2 Assay for human Retinoid X Receptor alpha (RXRa) (AID 2283012)
# How it was run: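 Transient transfection of human HepG2 with multiple GAL4-UAS reporter constructs; 24 h compound exposure; total RNA isolated, reverse-transcribed, PCR-amplified, 6-FAM labelled, HpaI-cut, resolved by capillary electrophoresis. Positive-direction fit versus DMSO.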
# [3] = read-out: Monocyte Chemoattractant Protein-1 (MCP1), CCL2 (gene 6347); assay: BSK_3C_MCP1: BioMAP Diversity Plus: 3C Assay for Monocyte Chemoattractant Protein-1 (MCP1) Biomarker Activity (AID 2283017; active means hit-call score of the fitted dose curve at least 0.9, where 1 is the maximum; inactive means score below 0.9); conditions: actives raise or lower the signal; primary human endothelial cells (HUVEC)
# How it was run: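 Using human vascular primary endothelium, researchers measured MCP-1 by ELISA 24 h after treatment, with DMSO serving as negative control for bidirectional fitting.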
# [4] = biological target: human Vitamin D Receptor (VDR), VDR (gene 7421) (UniProt P11473); assay: ATG_VDR_TRANS: Attagene TRANS-FACTORIAL HepG2 Assay for human Vitamin D Receptor (VDR) (AID 2283022)
# How it was run: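 Multiplexed TRANS reporter in HepG2; 24 h treatment; reporter mRNA by RT-PCR plus capillary electrophoresis; upregulation scored relative to DMSO.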
# [5] = read-out: Human Leukocyte Antigen - DR isotype (HLADR), HLA-DRA (gene 3122); assay: BSK_3C_HLADR: BioMAP Diversity Plus: 3C Assay for Human Leukocyte Antigen - DR isotype (HLADR) Biomarker Activity (AID 2283019; active means hit-call score of the fitted dose curve at least 0.9, where 1 is the maximum; inactive means score below 0.9); conditions: actives raise or lower the signal; primary human endothelial cells (HUVEC)
# How it was run: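 Compound added to primary HUVEC cultures, 24 h incubation, then HLA-DR determined by ELISA; endpoint derived by bidirectional fitting relative to DMSO negative control.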
# [6] = read-out: Monocyte Chemoattractant Protein-1 (MCP1), CCL2 (gene 6347); assay: BSK_4H_MCP1: BioMAP Diversity Plus: 4H Assay for Monocyte Chemoattractant Protein-1 (MCP1) Biomarker Activity (AID 2283018; active means hit-call score of the fitted dose curve at least 0.9, where 1 is the maximum; inactive means score below 0.9); conditions: actives raise or lower the signal; primary human endothelial cells (HUVEC)
# How it was run: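 ELISA read-out of MCP-1 from human vascular endothelial primary cells taken at 24 hours after compound exposure. Activity was fitted in both directions relative to DMSO, which served as negative control.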
# [7] = read-out: Plasminogen activator inhibitor-1 (PAI1), SERPINE1 (gene 5054); assay: BSK_hDFCGF_PAI1: BioMAP Diversity Plus: hDFCGF Assay for Plasminogen activator inhibitor-1 (PAI1) Biomarker Activity (AID 2283066; active means hit-call score of the fitted dose curve at least 0.9, where 1 is the maximum; inactive means score below 0.9); conditions: actives raise or lower the signal; primary human foreskin fibroblasts
# How it was run: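 Primary dermal fibroblasts (human foreskin), hDFCGF system; compound 24 h; PAI-1 by ELISA; bidirectional fit vs DMSO control.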
# [8] = biological target: human Thyroid Receptor alpha (THRa1), THRA (gene 7067) (UniProt P10827); assay: ATG_THRa1_TRANS: Attagene TRANS-FACTORIAL HepG2 Assay for human Thyroid Receptor alpha (THRa1) (AID 2283014)
# How it was run: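 Measured here is mRNA from a GAL4-UAS reporter in transfected HepG2 cells carrying a Gal4-fused receptor, 24 h post-dose. DMSO served as negative control and baseline.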
# [9] = read-out: Low-density lipoprotein receptor (LDLR), LDLR (gene 3949); assay: BSK_CASM3C_LDLR: BioMAP Diversity Plus: CASM3C Assay for Low-density lipoprotein receptor (LDLR) Biomarker Activity (AID 2283045; active means hit-call score of the fitted dose curve at least 0.9, where 1 is the maximum; inactive means score below 0.9;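 further: LDLR protein level on the cell surface quantified by ELISA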); conditions: actives raise or lower the signal; primary human coronary artery smooth muscle cells
# [10] = biological target: human Retinoid X Receptor beta (RXRb), RXRB (gene 6257) (UniProt P28702); assay: ATG_RXRb_TRANS: Attagene TRANS-FACTORIAL HepG2 Assay for human Retinoid X Receptor beta (RXRb) (AID 2283013)
# How it was run: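 Transfect HepG2 with GAL4-UAS multi-reporter constructs (chimeric NR-Gal4, TRANS format); dose compound 24 h; isolate RNA, RT-PCR, FAM primer extension, HpaI digest; quantify by capillary electrophoresis; positive direction vs DMSO.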
# [11] = read-out: Interleukin 17F (IL17F), IL17F (gene 112744); assay: BSK_BT_xIL17F: BioMAP Diversity Plus: BT Assay for Interleukin 17F (IL17F) Biomarker Activity (AID 2284243; active means hit-call score of the fitted dose curve at least 0.9, where 1 is the maximum; inactive means score below 0.9); conditions: primary human B cells with PBMC
# How it was run: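 Luminex readout of IL-17F secretion, 24 h; cells: human B cells with PBMC; positive-direction analysis, DMSO control.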
# [12] = read-out: Early growth response protein 1 (EGR1) transcription factor, EGR1 (gene 1958); assay: LTEA_HepaRG_EGR1: Life Technologies and Expression Analysis (LTEA) Assay for Early growth response protein 1 (EGR1) transcription factor using HepaRG (AID 2283490; active means hit-call score of the fitted dose curve at least 0.9, where 1 is the maximum; inactive means score below 0.9); conditions: actives raise or lower the signal; mRNA level, 48 h
# How it was run: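 Differentiated HepaRG cells in serum-free induction medium exposed 48 hours, duplicate, to 8 half-log concentrations up to 100 uM in 0.5% DMSO. EGR1 mRNA measured by TaqMan qRT-PCR, normalized to ACTB, GAPDH, POLR2A; bidirectional fit versus DMSO.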
# [13] = read-out: Ezrin (EZR), EZR (gene 7430); assay: LTEA_HepaRG_EZR: Life Technologies and Expression Analysis (LTEA) Assay for Ezrin (EZR) using HepaRG (AID 2283491; active means hit-call score of the fitted dose curve at least 0.9, where 1 is the maximum; inactive means score below 0.9); conditions: actives raise or lower the signal; mRNA level, 48 h
# [14] = read-out: Interleukin 6 (IL6), IL6 (gene 3569); assay: LTEA_HepaRG_IL6: Life Technologies and Expression Analysis (LTEA) Assay for Interleukin 6 (IL6) using HepaRG (AID 2283509; active means hit-call score of the fitted dose curve at least 0.9, where 1 is the maximum; inactive means score below 0.9); conditions: actives raise or lower the signal; mRNA level, 48 h
# How it was run: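 HepaRG cells exposed in duplicate for 48 h to eight half-log concentrations, top 100 uM, in 0.5% DMSO serum-free induction medium. mRNA measured by qRT-PCR, normalized to ACTB, GAPDH and POLR2A. Bidirectional fit versus DMSO.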
# [15] = CPHEA_Stoker_NIS_Cytotoxicity: Cytotoxicity Assessment for CPHEA's Radioactive Iodide Uptake (RAIU) Assay for Sodium/Iodide Symporter (NIS) Inhibition, Stoker and Laws Labs (AID 2283897)
# How it was run: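 Viability in hNIS-HEK293T-EPA cells is scored as a drop in luciferase-detected ATP following 2-hour room-temperature exposure (0.001–100uM; triplicate wells, three cell passages), with DMSO as negative control.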
# [16] = read-out: Plasminogen activator inhibitor-1 (PAI1), SERPINE1 (gene 5054); assay: BSK_BE3C_PAI1: BioMAP Diversity Plus: BE3C Assay for Plasminogen activator inhibitor-1 (PAI1) Biomarker Activity (AID 2283037; active means hit-call score of the fitted dose curve at least 0.9, where 1 is the maximum; inactive means score below 0.9); conditions: actives raise or lower the signal; primary human bronchial epithelial cells
# How it was run: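 Primary human lung bronchial epithelial cells; chemical dosing; 24 h; PAI-1 measured by ELISA; bidirectional fit referenced to DMSO as negative control.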
# [17] = BSK_hDFCGF_Proliferation: Cell Proliferation Assessment in the BioMAP Diversity Plus: hDFCGF Assay (AID 2283059; active means hit-call score of the fitted dose curve at least 0.9, where 1 is the maximum; inactive means score below 0.9;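 further: curves fitted for both rise and fall of signal versus DMSO baseline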); conditions: primary human foreskin fibroblasts
# How it was run: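 This proliferation readout used SRB total-protein staining of human foreskin fibroblasts […], normalized to DMSO with bidirectional curve fitting.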
# [18] = biological target: human CYP2D6, CYP2D6 (gene 1565) (UniProt P10635); assay: NVS_ADME_hCYP2D6: NovaScreen (NVS) CYP450-related Enzyme Activity (ADME) Assay for human CYP2D6 (AID 2283107)
# How it was run: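 Biochemical fluorescence assay, insect-cell-derived enzyme. Read at 1 h; inhibition taken from loss of signal against acetonitrile. Screened at 10 uM in duplicate, with concentration series for actives.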
# [19] = biological target: Cellular tumor antigen p53 (Homo sapiens) (UniProt P04637); assay: TOX21_p53_BLA_p4_ratio: Tox21 HCT-116 p53 Agonism Beta-lactamase Assay, Ratio, Phase 4 (AID 2283601)
# How it was run: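 HCT-116 p53 beta-lactamase reporter cells (4000/well) preincubated 5 h, then compound (217-fold dilution of DMSO stock) for 16 h at 37C. CCF4-AM substrate added 2 h at room temperature; 460/530 nm emission ratio fitted upward versus DMSO.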
# [20] = CCTE_Shafer_MEA_dev_spike_duration_mean: CCTE's Neural Network Formation Assay for Mean Spike Duration, Shafer Lab (AID 2284051; active means hit-call score of the fitted dose curve at least 0.9, where 1 is the maximum; inactive means score below 0.9;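 further: mean network spike duration pooled as area under curve over DIV 5 to 12 recordings; potency for a decrease in mean network spike duration versus DMSO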)
# How it was run: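 With DMSO as baseline, loss of mean network spike duration was scored from extracellular recordings of rat cortical neurons on MEA plates. Exposure spanned plating to DIV 12; the four recording days were collapsed into one AUC value.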
# Chain of UniProt P19793 (P19793 whole entry, looked up, the tested form may be a part): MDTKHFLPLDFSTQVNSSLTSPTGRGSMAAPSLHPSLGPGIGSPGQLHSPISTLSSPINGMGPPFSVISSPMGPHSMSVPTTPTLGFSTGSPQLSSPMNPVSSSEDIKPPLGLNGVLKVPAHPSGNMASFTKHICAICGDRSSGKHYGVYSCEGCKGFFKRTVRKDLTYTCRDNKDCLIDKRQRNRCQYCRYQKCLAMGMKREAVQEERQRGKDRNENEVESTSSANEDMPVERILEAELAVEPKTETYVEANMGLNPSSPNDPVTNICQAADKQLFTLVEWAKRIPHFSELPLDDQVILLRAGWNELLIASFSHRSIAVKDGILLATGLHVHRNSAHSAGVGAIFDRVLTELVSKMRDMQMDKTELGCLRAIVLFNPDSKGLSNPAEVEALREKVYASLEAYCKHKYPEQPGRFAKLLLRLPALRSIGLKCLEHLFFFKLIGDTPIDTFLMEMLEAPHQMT
# Chain of UniProt P04637 (P04637 whole entry, looked up): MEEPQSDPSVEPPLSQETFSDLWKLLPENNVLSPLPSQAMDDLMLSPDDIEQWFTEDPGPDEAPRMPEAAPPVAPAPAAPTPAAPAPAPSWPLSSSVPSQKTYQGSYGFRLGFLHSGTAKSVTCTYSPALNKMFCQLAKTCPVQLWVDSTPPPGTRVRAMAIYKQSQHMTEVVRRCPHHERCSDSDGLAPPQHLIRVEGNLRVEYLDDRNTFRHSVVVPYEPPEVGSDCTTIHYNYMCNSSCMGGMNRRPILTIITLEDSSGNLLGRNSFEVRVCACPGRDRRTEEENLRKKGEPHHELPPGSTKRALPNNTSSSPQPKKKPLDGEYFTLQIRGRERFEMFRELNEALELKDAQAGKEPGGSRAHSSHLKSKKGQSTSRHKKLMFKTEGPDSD
# Chain of UniProt P10827 (P10827 whole entry, looked up, the tested form may be a part): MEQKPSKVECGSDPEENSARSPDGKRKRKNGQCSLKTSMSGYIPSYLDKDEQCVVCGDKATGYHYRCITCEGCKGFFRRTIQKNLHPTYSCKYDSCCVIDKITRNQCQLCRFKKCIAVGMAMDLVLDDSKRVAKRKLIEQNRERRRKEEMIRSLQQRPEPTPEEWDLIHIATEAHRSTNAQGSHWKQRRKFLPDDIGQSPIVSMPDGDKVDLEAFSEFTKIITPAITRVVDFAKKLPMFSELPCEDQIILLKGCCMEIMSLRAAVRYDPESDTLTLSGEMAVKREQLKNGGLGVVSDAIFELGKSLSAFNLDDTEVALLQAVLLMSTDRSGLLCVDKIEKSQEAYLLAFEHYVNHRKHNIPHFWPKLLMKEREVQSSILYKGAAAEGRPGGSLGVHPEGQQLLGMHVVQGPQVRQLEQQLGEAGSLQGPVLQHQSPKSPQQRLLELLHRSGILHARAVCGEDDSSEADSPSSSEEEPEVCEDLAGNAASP
# Chain of UniProt P28702 (P28702 whole entry, looked up, the tested form may be a part): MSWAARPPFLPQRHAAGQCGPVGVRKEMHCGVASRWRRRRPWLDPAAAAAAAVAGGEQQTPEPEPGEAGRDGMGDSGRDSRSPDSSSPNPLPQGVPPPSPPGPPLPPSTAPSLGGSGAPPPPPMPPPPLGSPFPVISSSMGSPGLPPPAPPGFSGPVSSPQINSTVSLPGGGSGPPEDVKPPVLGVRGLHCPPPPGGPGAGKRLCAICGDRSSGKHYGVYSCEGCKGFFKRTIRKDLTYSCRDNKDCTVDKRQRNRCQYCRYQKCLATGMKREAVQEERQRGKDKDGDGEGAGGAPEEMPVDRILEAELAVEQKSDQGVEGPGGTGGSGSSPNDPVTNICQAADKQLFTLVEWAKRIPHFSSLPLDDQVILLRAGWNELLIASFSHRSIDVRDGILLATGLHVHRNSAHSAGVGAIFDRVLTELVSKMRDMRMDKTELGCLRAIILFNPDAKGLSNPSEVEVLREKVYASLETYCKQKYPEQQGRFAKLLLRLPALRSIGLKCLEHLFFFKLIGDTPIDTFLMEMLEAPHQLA
# Chain of UniProt P11473 (P11473 whole entry, looked up): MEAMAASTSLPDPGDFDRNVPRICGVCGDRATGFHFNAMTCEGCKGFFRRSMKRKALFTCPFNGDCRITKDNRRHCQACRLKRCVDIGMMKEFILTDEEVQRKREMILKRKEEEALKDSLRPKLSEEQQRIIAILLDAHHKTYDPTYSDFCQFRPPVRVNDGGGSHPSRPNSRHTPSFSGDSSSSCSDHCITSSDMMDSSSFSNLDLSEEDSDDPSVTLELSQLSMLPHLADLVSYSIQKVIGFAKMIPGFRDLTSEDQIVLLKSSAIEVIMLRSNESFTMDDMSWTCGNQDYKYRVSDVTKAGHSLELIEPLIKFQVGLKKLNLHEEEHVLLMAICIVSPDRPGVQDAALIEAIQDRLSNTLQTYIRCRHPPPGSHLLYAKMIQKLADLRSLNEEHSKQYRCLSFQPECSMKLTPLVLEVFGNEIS
# Chain of human Retinoic Acid Receptor gamma (RARg), RARG (gene 5916) (P13631 whole entry, looked up): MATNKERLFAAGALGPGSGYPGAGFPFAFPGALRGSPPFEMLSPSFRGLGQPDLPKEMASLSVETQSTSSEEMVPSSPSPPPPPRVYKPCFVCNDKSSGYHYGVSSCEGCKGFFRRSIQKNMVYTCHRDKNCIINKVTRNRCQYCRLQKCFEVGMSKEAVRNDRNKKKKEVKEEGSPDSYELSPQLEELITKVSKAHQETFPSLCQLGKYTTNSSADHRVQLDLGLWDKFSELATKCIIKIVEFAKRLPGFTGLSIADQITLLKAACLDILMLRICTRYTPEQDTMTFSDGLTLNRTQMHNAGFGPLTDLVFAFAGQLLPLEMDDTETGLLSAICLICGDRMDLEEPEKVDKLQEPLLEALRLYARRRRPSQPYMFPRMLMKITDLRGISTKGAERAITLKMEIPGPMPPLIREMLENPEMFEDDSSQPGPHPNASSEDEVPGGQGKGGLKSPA
# Chain of UniProt P10635 (P10635 whole entry, looked up): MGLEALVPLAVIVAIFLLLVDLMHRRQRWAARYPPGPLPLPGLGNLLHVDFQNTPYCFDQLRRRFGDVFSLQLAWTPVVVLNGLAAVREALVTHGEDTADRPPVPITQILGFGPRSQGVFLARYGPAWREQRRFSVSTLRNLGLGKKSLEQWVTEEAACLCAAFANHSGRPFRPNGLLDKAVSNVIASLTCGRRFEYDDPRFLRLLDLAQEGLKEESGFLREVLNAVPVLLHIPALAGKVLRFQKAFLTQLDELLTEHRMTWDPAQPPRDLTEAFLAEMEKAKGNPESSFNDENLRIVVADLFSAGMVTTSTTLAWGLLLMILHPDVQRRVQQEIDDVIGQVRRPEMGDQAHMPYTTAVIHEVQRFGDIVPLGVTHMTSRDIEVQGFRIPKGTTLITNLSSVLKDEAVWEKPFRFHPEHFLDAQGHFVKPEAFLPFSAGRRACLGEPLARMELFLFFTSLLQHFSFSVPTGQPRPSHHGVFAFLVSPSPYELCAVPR
compound,measurement,setting,value
CO/C=C(/C(=O)OC)c1ccccc1Oc1cc(Oc2ccccc2C#N)ncn1,outcome,[1],inactive
CN(N=O)C(N)=O,outcome,[2],inactive
C=CC(=O)OCC(COC(=O)C=C)(COC(=O)C=C)COC(=O)C=C,outcome,[2],inactive
CC1(C)C(C(=O)OC(C#N)c2cccc(Oc3ccccc3)c2)C1(C)C (stereo unspecified),outcome,[3],inactive
O=[N+]([O-])c1cc(C(F)(F)F)c(Cl)c([N+](=O)[O-])c1Cl,AC50,[2],active: 33.4 µM
same,outcome,[4],inactive
N#CSCSC#N,AC50,[5],active: 4.8 µM
O=C(O)CCCc1ccc(N(CCCl)CCCl)cc1,AC50,[6],active: 20 µM
same,AC50,[7],active: 20 µM
OC[P+](CO)(CO)CO,outcome,[8],inactive
O=P(OCC(Br)CBr)(OCC(Br)CBr)OCC(Br)CBr (stereo unspecified),AC50,[5],active: 17.4 µM
same,outcome,[9],inactive
O=C1C=CC(=O)C=C1,outcome,[10],inactive
same,AC50,[11],active: 20 µM
Nc1ccc(Cl)cc1C(=O)c1ccccc1,outcome,[4],inactive
O=C(Nc1ccccc1)Nc1cnns1,outcome,[8],inactive
same,outcome,[12],inactive
same,AC50,[13],active: 9.92 µM
same,outcome,[14],inactive
same,outcome,[15],inactive
CCOP(=S)(OCC)Oc1ccc2c(C)c(Cl)c(=O)oc2c1,outcome,[10],inactive
same,outcome,[16],inactive
same,AC50,[17],active: 7.6 µM
same,AC50,[18],active: 1.21 µM
same,outcome,[19],inactive
same,AC50,[20],active: 27.5 µM

# Reference: PubChem BioAssay (EPA / NIEHS)
